Results published in publication PMC4336329 (PLoS ONE, 2015).
Out of some 310,000 compounds screened, about 2,200 (0.71%) showed an effect of 50% or more. Effects have a minus sign here. The list shows a part of the results.

molecular target: human ether-à-go-go-related gene (hERG) potassium channel (human, UniProt Q12809); assay: primary screen, population patch clamp on CHO cells stably expressing hERG
Sequence (Q12809 whole entry, looked up): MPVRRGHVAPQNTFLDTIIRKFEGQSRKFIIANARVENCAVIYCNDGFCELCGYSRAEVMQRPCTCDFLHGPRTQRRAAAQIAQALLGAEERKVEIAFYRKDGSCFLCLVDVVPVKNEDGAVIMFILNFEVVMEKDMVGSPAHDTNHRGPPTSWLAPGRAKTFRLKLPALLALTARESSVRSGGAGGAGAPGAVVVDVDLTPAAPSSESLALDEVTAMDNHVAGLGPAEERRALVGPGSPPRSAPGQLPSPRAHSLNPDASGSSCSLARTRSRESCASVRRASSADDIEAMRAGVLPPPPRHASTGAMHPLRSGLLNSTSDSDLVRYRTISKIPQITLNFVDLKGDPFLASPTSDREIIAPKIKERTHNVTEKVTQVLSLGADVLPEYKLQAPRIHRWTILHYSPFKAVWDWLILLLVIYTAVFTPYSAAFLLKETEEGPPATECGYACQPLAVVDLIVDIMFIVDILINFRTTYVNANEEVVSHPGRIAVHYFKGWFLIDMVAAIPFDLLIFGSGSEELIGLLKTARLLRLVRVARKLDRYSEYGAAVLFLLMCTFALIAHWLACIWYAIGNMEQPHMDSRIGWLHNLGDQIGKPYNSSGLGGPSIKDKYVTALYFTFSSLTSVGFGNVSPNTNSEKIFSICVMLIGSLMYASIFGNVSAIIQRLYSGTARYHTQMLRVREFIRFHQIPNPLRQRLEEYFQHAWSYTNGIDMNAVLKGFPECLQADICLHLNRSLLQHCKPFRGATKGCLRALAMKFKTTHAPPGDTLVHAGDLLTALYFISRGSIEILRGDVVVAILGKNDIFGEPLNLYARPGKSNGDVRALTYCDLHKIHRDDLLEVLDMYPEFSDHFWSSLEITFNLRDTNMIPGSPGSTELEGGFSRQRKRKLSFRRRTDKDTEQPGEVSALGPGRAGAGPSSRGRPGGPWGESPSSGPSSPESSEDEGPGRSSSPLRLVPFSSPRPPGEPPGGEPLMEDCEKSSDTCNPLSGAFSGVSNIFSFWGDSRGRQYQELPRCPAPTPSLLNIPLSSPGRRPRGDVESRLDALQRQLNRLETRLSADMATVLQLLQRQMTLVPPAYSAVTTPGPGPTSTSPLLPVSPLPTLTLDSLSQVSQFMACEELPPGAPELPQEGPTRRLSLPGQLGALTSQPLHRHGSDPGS

SMILES | hERG current change (%, negative = inhibition) at 1uM
COc1ccc(C2C(C(=O)OCC(=O)N3CCCCC3)CCC(=O)N2c2ccc(OC)cc2)cc1 (stereo not drawn) | 4.82%
Cc1nn(C)cc1CNC(=O)c1cccc(Cl)c1 | 5.44%
COc1ccccc1NC(=O)NCCN1CCN(c2cccc(Cl)c2)CC1 | 3.67%
CCOc1ccccc1Nc1nc(N)nc(CN2CCCCC2C)n1 (stereo not drawn) | -9.01%
Br.Cc1cccc(N2C(=O)SC(SC(=Nc3ccccc3)Nc3ccccc3)C2=O)c1 (stereo not drawn) | 15.4%
O=C1CCCC2=C1C(c1ccc(Cl)cc1)C1C(=O)c3ccccc3C1=N2 (stereo not drawn) | -5.98%
COc1ccc(OC2CCN(S(=O)(=O)c3ccc(OC)c(OC)c3)CC2)cc1 | -1.03%
COc1cc2c(cc1OC)C(c1cccs1)N(C(=O)c1cccnc1)CC2 (stereo not drawn) | -22.2%
O=C(Nc1ccccc1C(=O)N1CCOCC1)C1CC(=O)N(c2ccc(F)cc2)C1 (stereo not drawn) | 7.58%
Cc1ccsc1C1NC(=O)c2c(sc3c2CCN(C)C3)N1 (stereo not drawn) | -1.97%
COc1cc2c(cc1OC)/C(=C/C(=O)c1ccc(F)cc1)NCC2 | 11.1%
O=C(CNC(=O)c1ccc(-c2ccccc2)cc1)OCc1c(F)cccc1Cl | 5.9%
Cc1ccc(C2C(C#N)=C(N)SC(N)=C2C#N)o1 | 0.166%
Cc1cc([N+](=O)[O-])nn1CCCC(=O)NC(C)c1ccccc1 (stereo not drawn) | 2.3%
Cc1coc2cc3oc(=O)c(CCC(=O)NCCCn4ccnc4)c(C)c3cc12 | -15.1%
CN(CC(=O)NC1CCCCC1)S(=O)(=O)c1ccc(Br)s1 | 10.5%
CC1=C(C(N)=O)C(c2sccc2C)n2nnnc2N1 (stereo not drawn) | 6.11%
O=C(CCl)N(c1ccccc1)C1CCS(=O)(=O)C1 (stereo not drawn) | 6.05%
CC1CCC2(CC1)NC(=O)N(CC(=O)Nc1cccc(C#N)c1)C2=O (stereo not drawn) | 6.35%
CC(C)(C)N(Cc1cc2ccccc2[nH]c1=O)C(=O)C1CCCCC1 | -0.0289%
C/C(=N\NC(=O)c1nnn(-c2nonc2N)c1CSc1ccc(C)cc1)c1ccco1 | -12.6%
Cc1cccc(OCCCCN2CCNCC2)c1 | 0.159%
Cc1ccccc1NC(=O)COc1ccc(Br)cc1CNCCCO.Cl | 3.07%

SMILES | hERG current change (%, negative = inhibition) at 1uM
CCCCNC(=O)CC(NS(=O)(=O)c1ccc(C)cc1)c1ccco1 (stereo not drawn) | 13.7%
Cc1ccc(O)c(C(=O)c2cc(C#N)c3nc4ccccc4n3c2)c1 | 16.4%
Cc1ccc(NC(=O)Cc2c(O)c3ccccc3[nH]c2=O)c(C)c1 | 8.78%
CN(C)C(=O)NCc1ccc(S(N)(=O)=O)cc1 | 10.8%
CC1=C(C)C(=O)N(C(C)CCc2ccccc2)C1=O (stereo not drawn) | 12.7%
O=[N+]([O-])c1cccc(Cl)c1N1CCOCC1 | 9.17%
Cc1ccccc1CCN(CC(=O)NCc1ccc(F)cc1)C(=O)c1csnn1 | 1.7%
COc1ccc(CN2CCCC(C(=O)c3cccc(OC(C)C)c3)C2)cc1Cn1cccn1 (stereo not drawn) | -3.41%
COc1ccccc1N1CCN(C(=O)CSc2ncccc2-c2nc3ccccc3[nH]2)CC1 | -9.23%
O=P(CO)(Cc1ccccc1)Cc1ccccc1 | 2.15%
Cc1ccc(C)c(NC(=O)C2Cc3ccccc3CN2C(=O)OCc2ccccc2)c1 (stereo not drawn) | 9.48%
Nc1ccncc1Cl | 10%
O=C(NCCN1CCOCC1)C1CCN(c2ncnc3c2sc2cccc(F)c23)CC1 | 6.28%
O=C(CSc1nnc(-c2ccc(Br)cc2)o1)Nc1cccc(C(=O)O)c1 | 1.64%
CC(=O)Nc1ccc(S(=O)(=O)N2CCN(c3ccc(C)c(Cl)c3)CC2)cc1 | 10.4%
CC1=CC(c2ccccc2)n2nc(NC(=O)CCC(=O)O)nc2N1 (stereo not drawn) | 2.01%
Cc1ccc(NC(=O)C2CCCN(C(=O)Nc3ccc(F)cc3)C2)cc1 (stereo not drawn) | 13.4%
CC(=O)Oc1ccc2c(C)c(CC(C)O)c(=O)oc2c1 (stereo not drawn) | 11.5%
CCOC1(c2ccccc2)CC1C(=O)N/N=C/c1cccc([N+](=O)[O-])c1 (stereo not drawn) | 12.2%
CCN(CC(=O)Nc1c(F)cccc1F)C(=O)c1ccc(N2C(=O)c3ccccc3C2=O)cc1 | -0.192%
Cc1nc(NC(=O)CSc2nnc(C3CC3)n2C)sc1C | 15.7%
CC1N(C(=O)N2CCOCC2)CCN1S(=O)(=O)c1ccc(Cl)cc1 (stereo not drawn) | 4%
CC[N+]1=C(C)C(C)(C)c2cc(C)ccc21.[I-] | 3.91%

SMILES | hERG current change (%, negative = inhibition) at 1uM
Cc1c(C(=O)OCc2ccccc2)[nH]c2c1C(=O)CC(c1ccco1)C2 (stereo not drawn) | 6.02%
FC(F)(F)c1nc2ccccc2n1CCNc1nc(CN2CCCCC2)cs1 | 16.8%
O=C(Cn1[nH]c(=O)c2ccccc2c1=O)N1CC=C(c2ccccc2)CC1 | 9.29%
CC(C)c1ccc(NC(=O)CN2C(=O)NC(C)(C3CC3)C2=O)cc1 (stereo not drawn) | 9.24%
COc1ccc2[nH]c(C(=O)Nc3cccc(C)n3)cc2c1 | -9.72%
COc1ccc(C(O)c2coc3ccc(O)c(CN(C)C)c23)cc1 (stereo not drawn) | -7.41%
COc1ccc2c(c1)C(=O)OC2CC(=O)O (stereo not drawn) | 13.1%
COc1ccccc1C1/C(=C(/O)c2ccccc2)C(=O)C(=O)N1CC(C)C (stereo not drawn) | 10.7%
COCc1cc(=O)[nH]c(/N=C(\N)Nc2ccc(Cl)c(Cl)c2)n1 | 13.9%
Cc1cc(C)n2nc(CNS(=O)(=O)c3c(F)c(F)c(F)c(F)c3F)nc2n1 | 16.6%
CCOc1ccc(-n2cc(C(=O)NC(C)C)c3cc(OC)c(OC)cc3c2=O)cc1 | 9.58%
Cc1noc(C)c1C(=O)Nc1ccc(F)cc1F | -1.94%
C=CCNC(=O)COC(=O)C1CCN(S(=O)(=O)c2ccc3c(c2)OCCO3)CC1 | 5.05%
O=c1[nH]c2ccccc2nc1-c1ccccc1 | 9.81%
Cc1nnc(SCC(=O)NC(=O)Nc2ccc3c(c2)OCCO3)n1N | 7.63%
Cc1cc(C)c(S(=O)(=O)N2CCN(c3ccc([N+](=O)[O-])c(-n4nc(C)cc4C)c3)CC2)c(C)c1 | 0.425%
CC1CCC(NS(=O)(=O)c2cccc3nsnc23)CC1 (stereo not drawn) | 10.5%
Cc1nn2c(-c3ccco3)nnc2c2ccccc12 | 2.18%
CC(=O)c1cccc(CN2CCN(CCc3ccccc3)C(CCO)C2)c1 (stereo not drawn) | -16.4%
CCOC(=O)CSc1nc2cc3c(cc2cc1CC)OCCO3 | 7.19%
Cl.O=C1CC(=C(c2ccccc2)c2ccccc2)C(=O)N1CCCCN1CCN(c2cccc(Cl)c2)CC1 | 0.674%
CC(=O)OC1C2CCC1C([NH+]1CCCC1)CC2.[Cl-] (stereo not drawn) | 10.6%
CCOc1ccc(CNC(=O)Cn2ccc3cc(S(=O)(=O)N4CCCC4)ccc32)cc1 | 14.8%

SMILES | hERG current change (%, negative = inhibition) at 1uM
C=CCc1cccc(/C=N/c2nc3ccccc3n2CC)c1O | 7.15%
Cc1nn2c(NCc3ccccn3)cc(C(C)(C)C)nc2c1-c1ccccc1 | 8.2%
COC(=O)c1ccc(/C=N/OCC(=O)NCc2ccc(F)cc2)cc1 | 3.32%
CN(C)c1nc(NCc2ccccc2)nc(SCC(N)=O)n1 | 9.4%
COc1ccc(C2=NS(=O)(=O)N(C)C(C(=O)Nc3cc(OC)c(OC)c(OC)c3)=C2)cc1 | 6.75%
O=C(Nc1ccccc1N1CCOCC1)c1ccc2ccccc2c1 | -2.57%
Cc1ccccc1N1C(=O)NC(=O)/C(=C\c2cc(C)n(C)c2C)C1=O | 10.7%
Cn1c(SCC(=O)Nc2sccc2C#N)nnc1-c1ccccc1 | 12%
CCOc1ccc(S(=O)(=O)N(C)c2ccc(OCC(=O)NCc3cccnc3)cc2)cc1 | 8.84%
CC1CCCN(C(=O)c2ccc(CNc3c(N4CCCCC4)c(=O)c3=O)cc2)C1 (stereo not drawn) | 7.1%
COc1ccccc1CNC(=O)c1ccc(OC(C)C)cc1 | 19.4%
COC(=O)C1=C(C)OC(N)=C(C#N)C1C1CCCCC1 (stereo not drawn) | 13.9%
COc1ccc(NS(=O)(=O)c2cccc(N/C(=N\S(=O)(=O)c3ccccc3)c3ccc(F)cc3)c2)cc1 | 6.56%
CC(=O)Nc1ccc(C2=NNC(=Nc3cccc(S(=O)(=O)N(C)C)c3)SC2)cc1 | 10.8%
COc1ccc(CNC(=O)C2CCC(CNc3c(N4CCCCC4)c(=O)c3=O)CC2)cc1 (stereo not drawn) | 10.7%
Cc1noc(C)c1CSCC(=O)Nc1ccc(S(=O)(=O)C(F)F)cc1 | -2.84%
COc1ccc(C)cc1S(=O)(=O)N(C)CC(=O)N1CCC(C(N)=O)CC1 | 9.99%
Cc1nnc(SCC(=O)Nc2ccccc2F)n1-c1ccc(F)cc1 | 11.2%
Cc1ccc(NC(=O)C2CC(=O)N(Cc3ccco3)C2)cc1 (stereo not drawn) | 1.48%
CCN(CC)c1ncc(C#N)c(N)n1 | 9.78%
O=C(NCCc1ccccc1Cl)C1CCC(=O)N(CC2CCCCC2)C1 (stereo not drawn) | 0.308%
